# According to the supplement of paper PMC8728848:
# This is one part of the list.
# B1: GNAT (Pseudomonas aeruginosa), Q9HV14 (protein)
# chain: MQLSHRPAETGDLETVAGFPQDRDELFYCYPKAIWPFSVAQLAAAIAERRGSTVAVHDGQVLGFANFYQWQHGDFCALGNMMVAPAARGLGVARYLIGVMENLAREQYKARLMKISCFNANAAGLLLYTQLGYQPRAIAERHDPDGRRVALIQMDKPLEP
# Legend:
# Experiment in all cases: glycan array binding signal (z-score within array); higher = stronger binding
# Conditions in all cases: glycan notation: IUPAC condensed, linker removed
# [1] = target: Gal(a1-4)Gal(b1-4)GlcNAc(b1-2)Man(a1-3)[Gal(a1-4)Gal(b1-4)GlcNAc(b1-2)Man(a1-6)]Man(b1-4)GlcNAc(b1-4)GlcNAc
# Method in brief: (§1)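 From the Consortium for Functional Glycomics database, 3228 arrays were curated, keeping only those whose protein sequence was available. Binding is given as a within-array Z-score averaged across arrays sharing a protein sequence and across linkers. Negative Z-scores can be read as non-binding.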
# [2] = target: Gal(a1-4)Gal(b1-4)GlcNAc(b1-3)Gal(b1-4)Glc
# Method in brief: as §1
# [3] = target: Gal(a1-4)GlcNAc
# Method in brief: as §1
# [4] = target: Gal(a1-6)Glc
# Method in brief: as §1
# [5] = target: Gal(b1-2)Gal
# Method in brief: as §1
# [6] = target: Gal(b1-3)Gal
# Method in brief: as §1
# [7] = target: Gal(b1-3)Gal(b1-4)GlcNAc
# Method in brief: as §1
# [8] = target: Gal(b1-3)Gal(b1-4)GlcNAc(b1-2)Man(a1-3)[Gal(b1-3)Gal(b1-4)GlcNAc(b1-2)Man(a1-6)]Man(b1-4)GlcNAc(b1-4)GlcNAc
# Method in brief: as §1
# [9] = target: Gal(b1-3)GalNAc
# Method in brief: as §1
# [10] = target: Gal(b1-3)GalNAc(a1-3)[Fuc(a1-2)]Gal(b1-4)Glc
# Method in brief: as §1
# [11] = target: Gal(b1-3)GalNAc(a1-3)[Fuc(a1-2)]Gal(b1-4)GlcNAc
# Method in brief: as §1
# [12] = target: Gal(b1-3)GalNAc(b1-3)Gal(a1-4)Gal(b1-4)Glc
# Method in brief: as §1
# [13] = target: Gal(b1-3)GalNAc(b1-4)Gal(b1-4)Glc
# Method in brief: as §1
# [14] = target: Gal(b1-3)GalNAc(b1-4)[Neu5Ac(a2-3)]Gal(b1-4)Glc
# Method in brief: as §1
# [15] = target: Gal(b1-3)GlcNAc
# Method in brief: as §1
# [16] = target: Gal(b1-3)GlcNAc(a1-6)Gal(b1-4)GlcNAc
# Method in brief: as §1
# [17] = target: Gal(b1-3)GlcNAc(b1-2)Man(a1-3)[Gal(b1-3)GlcNAc(b1-2)Man(a1-6)]Man(b1-4)GlcNAc(b1-4)GlcNAc
# Method in brief: as §1
# [18] = target: Gal(b1-3)GlcNAc(b1-2)Man(a1-3)[Gal(b1-3)GlcNAc(b1-2)Man(a1-6)]Man(b1-4)GlcNAc(b1-4)[Fuc(a1-6)]GlcNAc
# Method in brief: as §1
# [19] = target: Gal(b1-3)GlcNAc(b1-2)[Gal(b1-3)GlcNAc(b1-6)]Man(a1-6)[Gal(b1-3)GlcNAc(b1-2)Man(a1-3)]Man(b1-4)GlcNAc(b1-4)GlcNAc
# Method in brief: as §1
# [20] = target: Gal(b1-3)GlcNAc(b1-3)Gal(b1-3)GlcNAc
# Method in brief: as §1
# [21] = target: Gal(b1-3)GlcNAc(b1-3)Gal(b1-4)Glc
# Method in brief: as §1
# [22] = target: Gal(b1-3)GlcNAc(b1-3)Gal(b1-4)GlcNAc
# Method in brief: as §1
# [23] = target: Gal(b1-3)GlcNAc(b1-3)Gal(b1-4)GlcNAc(b1-6)[Gal(b1-3)GlcNAc(b1-3)]Gal(b1-4)Glc
# Method in brief: as §1
# [24] = target: Gal(b1-3)GlcNAc(b1-3)Gal(b1-4)[Fuc(a1-3)]GlcNAc(b1-6)[Gal(b1-3)GlcNAc(b1-3)]Gal(b1-4)Glc
# Method in brief: as §1
# [25] = target: Gal(b1-3)GlcNAc(b1-3)GalNAc
# Method in brief: as §1
# [26] = target: Gal(b1-3)GlcNAc(b1-6)Gal(b1-4)GlcNAc
# Method in brief: as §1
# [27] = target: Gal(b1-3)[Fuc(a1-4)]GlcNAc
# Method in brief: as §1
# [28] = target: Gal(b1-3)[Fuc(a1-4)]GlcNAc(b1-2)Man(a1-3)[Gal(b1-3)[Fuc(a1-4)]GlcNAc(b1-2)Man(a1-6)]Man(b1-4)GlcNAc(b1-4)GlcNAc
# Method in brief: as §1
# [29] = target: Gal(b1-3)[Fuc(a1-4)]GlcNAc(b1-2)Man(a1-3)[Gal(b1-3)[Fuc(a1-4)]GlcNAc(b1-2)Man(a1-6)]Man(b1-4)GlcNAc(b1-4)[Fuc(a1-6)]GlcNAc
# Method in brief: as §1
# [30] = target: Gal(b1-3)[Fuc(a1-4)]GlcNAc(b1-3)Gal(b1-3)[Fuc(a1-4)]GlcNAc
# Method in brief: as §1
# [31] = target: Gal(b1-3)[Fuc(a1-4)]GlcNAc(b1-3)Gal(b1-4)GlcNAc
# Method in brief: as §1
# [32] = target: Gal(b1-3)[Fuc(a1-4)]GlcNAc(b1-3)Gal(b1-4)[Fuc(a1-3)]GlcNAc
# Method in brief: as §1
# [33] = target: Gal(b1-3)[GlcNAc(b1-6)]GalNAc
# Method in brief: as §1
# [34] = target: Gal(b1-3)[Neu5Ac(a2-6)]GalNAc
# Method in brief: as §1
# [35] = target: Gal(b1-3)[Neu5Ac(a2-6)]GlcNAc(b1-6)Gal(b1-4)Glc
# Method in brief: as §1
# [36] = target: Gal(b1-3)[Neu5Ac(b2-6)]GalNAc
# Method in brief: as §1
# [37] = target: Gal(b1-4)Gal
# Method in brief: as §1
# [38] = target: Gal(b1-4)GalNAc(a1-3)[Fuc(a1-2)]Gal(b1-4)GlcNAc
# Method in brief: as §1
# [39] = target: Gal(b1-4)GalNAc(b1-3)[Fuc(a1-2)]Gal(b1-4)GlcNAc
# Method in brief: as §1
# [40] = target: Gal(b1-4)Glc
# Method in brief: as §1
# [41] = target: Gal(b1-4)Glc6S
# Method in brief: as §1
# [42] = target: Gal(b1-4)GlcNAc
# Method in brief: as §1
# [43] = target: Gal(b1-4)GlcNAc(a1-6)Gal(b1-4)GlcNAc
# Method in brief: as §1
# [44] = target: Gal(b1-4)GlcNAc(b1-2)Man
# Method in brief: as §1
# [45] = target: Gal(b1-4)GlcNAc(b1-2)Man(a1-3)Man(b1-4)GlcNAc(b1-4)GlcNAc
# Method in brief: as §1
binder,measurement,setting,value
B1,glycan array binding signal (z-score),[1],0.997
same,glycan array binding signal (z-score),[2],2.37
same,glycan array binding signal (z-score),[3],0.374
same,glycan array binding signal (z-score),[4],-0.211
same,glycan array binding signal (z-score),[5],-0.324
same,glycan array binding signal (z-score),[6],-0.184
same,glycan array binding signal (z-score),[7],-0.085
same,glycan array binding signal (z-score),[8],-0.334
same,glycan array binding signal (z-score),[9],-0.167
same,glycan array binding signal (z-score),[10],-0.364
same,glycan array binding signal (z-score),[11],-0.166
same,glycan array binding signal (z-score),[12],-0.366
same,glycan array binding signal (z-score),[13],-0.016
same,glycan array binding signal (z-score),[14],0.136
same,glycan array binding signal (z-score),[15],0.027
same,glycan array binding signal (z-score),[16],-0.301
same,glycan array binding signal (z-score),[17],1.73
same,glycan array binding signal (z-score),[18],0.185
same,glycan array binding signal (z-score),[19],1.59
same,glycan array binding signal (z-score),[20],0.929
same,glycan array binding signal (z-score),[21],0.418
same,glycan array binding signal (z-score),[22],0.381
same,glycan array binding signal (z-score),[23],1.59
same,glycan array binding signal (z-score),[24],2.87
same,glycan array binding signal (z-score),[25],0.367
same,glycan array binding signal (z-score),[26],0.151
same,glycan array binding signal (z-score),[27],-0.371
same,glycan array binding signal (z-score),[28],0.539
same,glycan array binding signal (z-score),[29],-0.429
same,glycan array binding signal (z-score),[30],-0.328
same,glycan array binding signal (z-score),[31],0.297
same,glycan array binding signal (z-score),[32],-0.315
same,glycan array binding signal (z-score),[33],-0.19
same,glycan array binding signal (z-score),[34],0.421
same,glycan array binding signal (z-score),[35],-0.242
same,glycan array binding signal (z-score),[36],-0.065
same,glycan array binding signal (z-score),[37],-0.449
same,glycan array binding signal (z-score),[38],-0.14
same,glycan array binding signal (z-score),[39],0.29
same,glycan array binding signal (z-score),[40],-0.418
same,glycan array binding signal (z-score),[41],-0.348
same,glycan array binding signal (z-score),[42],-0.177
same,glycan array binding signal (z-score),[43],0.533
same,glycan array binding signal (z-score),[44],-0.305
same,glycan array binding signal (z-score),[45],3.3
